# Where “and” joins values, the source holds several entries; their conditions need not be identical. Equal values may be shown once. Inconclusive results, whose numbers are uncertain, are shown with a selection of clear calls. For some of these results: Potencies of inconclusive entries are doubtful fits and often do not repeat. For some of these results: “Side channel” marks fits to a control or component signal instead of the main read-out. Where a structure was tested more than once in an assay, its records may differ in their call. Calls of active or inactive are those of the source. Unless noted, the call rests on the fitted dose curve; in most records, active means well fitted curve in the direction sought with a large enough effect; inconclusive means small, poorly fitted or top-dose-only effect, or another doubt; inactive means no such curve, though single readings can be large; an effect the other way counts as inactive or inconclusive.
# How the values were obtained:
# [1] = Nrf2 qHTS screen for inhibitors: Validation (AID 493153; active means well fitted inhibition curve with a large enough effect in the main read-out, with a control signal flat, not every such curve was filed as active; inconclusive means small, poorly fitted or top-dose-only effect, or effect the other way, or a change in a side signal; inactive means no such curve, though single readings can be large or run the other way; further: potency means the concentration at half of the fitted maximal effect)
# Outline: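 In this counterscreened reporter format, each well gives two signals: CellTiter-Fluor fluorescence for cytotoxicity and ARE-luciferase luminescence for Nrf2 function. A549 ARE_Fluc cells in 5% FBS OPTI-MEM were exposed to compound titrations for 18-24 h.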
# [2] = qHTS for Inhibitors of Cell Surface uPA Generation: Validation Assay (AID 493164); settings: mouse cells, plasminogen activation; further: potency means the concentration at half of the fitted maximal effect
# Outline: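 Compounds are titrated over seven points (2.45 nM–38.3 uM final) onto pre-plated RAW 264.7 cells and incubated for 18 h. Retained intracellular ATP, measured with ATP-Lite, indicates blocked lethal factor entry.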
# [3] = biological target: Peptidyl-prolyl cis-trans isomerase NIMA-interacting 1 (Homo sapiens) (UniProt Q13526); experiment: qHTS Validation Assay to Find Inhibitors of Pin1 (AID 504536; active means well fitted inhibition curve with a large enough effect in the polarisation, with a control signal flat, not every such curve was filed as active; inconclusive means small, poorly fitted or top-dose-only effect, or effect the other way; the % refers to the polarisation; further: potency means the concentration at half of the fitted maximal effect)
# Chain of UniProt Q13526 (Q13526 whole entry, looked up): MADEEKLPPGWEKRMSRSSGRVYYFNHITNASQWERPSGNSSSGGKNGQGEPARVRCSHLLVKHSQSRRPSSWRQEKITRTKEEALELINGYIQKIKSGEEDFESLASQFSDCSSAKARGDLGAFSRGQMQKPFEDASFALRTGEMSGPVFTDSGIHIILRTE
# Outline: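 Fluorescence polarization competition: compounds (titration) displace HiFluor-488-labeled Pin1-1b peptide from Pin1 (0.3 uM final) in pH 7.5 HEPES buffer with DTT, 10 min at room temperature; %Activity normalized to no-enzyme wells, curves fitted.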
# [4] = biological target: phosphoglycerate mutase (Leishmania major) (UniProt Q4Q090); experiment: qHTS Validation Assay to Find Inhibitors of Phosphoglycerate Mutase (AID 504548); settings: Potency: inhibition qHTS; further: potency means the concentration at half of the fitted maximal effect
# Chain of UniProt Q4Q090 (Q4Q090 1-553): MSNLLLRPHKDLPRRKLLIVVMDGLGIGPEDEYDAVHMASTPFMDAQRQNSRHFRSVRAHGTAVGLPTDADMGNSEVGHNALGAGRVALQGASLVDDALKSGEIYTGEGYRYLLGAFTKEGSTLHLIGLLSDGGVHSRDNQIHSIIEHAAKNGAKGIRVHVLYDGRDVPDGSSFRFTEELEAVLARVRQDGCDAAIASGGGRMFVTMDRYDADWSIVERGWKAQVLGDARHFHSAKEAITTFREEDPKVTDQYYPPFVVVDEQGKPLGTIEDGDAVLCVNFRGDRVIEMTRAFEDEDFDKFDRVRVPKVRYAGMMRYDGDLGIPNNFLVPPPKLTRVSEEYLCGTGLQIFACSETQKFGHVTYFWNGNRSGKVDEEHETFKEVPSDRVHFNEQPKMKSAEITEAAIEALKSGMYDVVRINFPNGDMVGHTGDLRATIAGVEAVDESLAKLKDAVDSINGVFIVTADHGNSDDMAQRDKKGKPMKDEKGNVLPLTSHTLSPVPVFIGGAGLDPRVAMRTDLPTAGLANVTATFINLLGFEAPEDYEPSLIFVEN
# Outline: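 Inhibition of L. major PGAM was assessed by Kinase-GloPlus luminescence following a 45-minute room-temperature reaction with enzyme at 1.25nM final.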
# [5] = qHTS for Inhibitors of ATXN expression: Validation of Cytotoxic Assay (AID 588349); further: potency means the concentration at half of the fitted maximal effect
# Outline: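 Toxicity of test compounds toward HEK293 cells is scored from cellular ATP content measured by CellTiter Glo. Cells receive titrated doses and incubate 72 hr at 37 degrees C beforehand.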
# [6] = biological target: Ubiquitin carboxyl-terminal hydrolase 1 (Homo sapiens) (UniProt O94782); experiment: Inhibitors of USP1/UAF1: Pilot qHTS (AID 504865); further: potency means the concentration at half of the fitted maximal effect;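 further: rhodamine fluorescence freed from ubiquitin-rhodamine substrate followed over time; nearly all actives have a fitted effect of over 35% in size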
# Chain of UniProt O94782 (O94782 whole entry, looked up): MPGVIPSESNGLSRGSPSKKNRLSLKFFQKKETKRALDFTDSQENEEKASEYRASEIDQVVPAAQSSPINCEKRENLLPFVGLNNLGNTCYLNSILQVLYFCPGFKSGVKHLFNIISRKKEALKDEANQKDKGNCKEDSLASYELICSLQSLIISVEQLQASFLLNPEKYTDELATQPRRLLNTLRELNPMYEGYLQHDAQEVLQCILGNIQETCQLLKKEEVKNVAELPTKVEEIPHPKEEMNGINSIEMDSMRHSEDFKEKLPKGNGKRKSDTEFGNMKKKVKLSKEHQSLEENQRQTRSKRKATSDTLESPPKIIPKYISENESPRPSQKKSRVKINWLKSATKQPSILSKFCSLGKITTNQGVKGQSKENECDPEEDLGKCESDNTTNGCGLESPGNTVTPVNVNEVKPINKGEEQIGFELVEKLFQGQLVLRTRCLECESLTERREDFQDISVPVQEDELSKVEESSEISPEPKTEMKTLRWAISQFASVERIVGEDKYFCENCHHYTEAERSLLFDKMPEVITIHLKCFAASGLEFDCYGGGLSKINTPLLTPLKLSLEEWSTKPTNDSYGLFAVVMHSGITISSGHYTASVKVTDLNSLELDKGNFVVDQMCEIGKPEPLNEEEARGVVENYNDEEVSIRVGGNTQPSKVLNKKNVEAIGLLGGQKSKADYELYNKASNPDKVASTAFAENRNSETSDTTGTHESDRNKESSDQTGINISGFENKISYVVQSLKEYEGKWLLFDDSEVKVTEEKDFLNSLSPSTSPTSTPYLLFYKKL
# Outline: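 Deubiquitinase activity followed as kinetic rhodamine fluorescence release from 150 nM Ub-Rho. 1 nM USP1/UAF1 with compound, after 15 min room-temperature preincubation, in HEPES pH 7.8 buffer containing TCEP, EDTA, BSA and Tween-20.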
# [7] = qHTS for Inhibitors of ATXN expression: Validation (AID 588378); further: potency means the concentration at half of the fitted maximal effect; nearly all actives have a fitted effect of over 75% in size
# Outline: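 Luciferase luminescence (Bright-Glo) from an ATXN2-FFLuc HEK293 line after 24 h compound exposure at 37 °C, preceded by a CellTiter-Fluor fluorescence viability read. Serial dilutions of a reference ATXN2 inhibitor and a luciferase inhibitor served as controls.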
# [8] = biological target: ATPase family AAA domain-containing protein 5 (Homo sapiens) (UniProt Q96QE3); experiment: Validation screen for small molecules that inhibit ELG1-dependent DNA repair in human embryonic kidney (HEK293T) cells expressing luciferase-tagged ELG1 (AID 493107); further: nearly all actives have a fitted effect of over 70% in size; further: potency means the concentration at half of the fitted maximal effect
# Chain of UniProt Q96QE3 (Q96QE3 whole entry, looked up, the tested form may be a part): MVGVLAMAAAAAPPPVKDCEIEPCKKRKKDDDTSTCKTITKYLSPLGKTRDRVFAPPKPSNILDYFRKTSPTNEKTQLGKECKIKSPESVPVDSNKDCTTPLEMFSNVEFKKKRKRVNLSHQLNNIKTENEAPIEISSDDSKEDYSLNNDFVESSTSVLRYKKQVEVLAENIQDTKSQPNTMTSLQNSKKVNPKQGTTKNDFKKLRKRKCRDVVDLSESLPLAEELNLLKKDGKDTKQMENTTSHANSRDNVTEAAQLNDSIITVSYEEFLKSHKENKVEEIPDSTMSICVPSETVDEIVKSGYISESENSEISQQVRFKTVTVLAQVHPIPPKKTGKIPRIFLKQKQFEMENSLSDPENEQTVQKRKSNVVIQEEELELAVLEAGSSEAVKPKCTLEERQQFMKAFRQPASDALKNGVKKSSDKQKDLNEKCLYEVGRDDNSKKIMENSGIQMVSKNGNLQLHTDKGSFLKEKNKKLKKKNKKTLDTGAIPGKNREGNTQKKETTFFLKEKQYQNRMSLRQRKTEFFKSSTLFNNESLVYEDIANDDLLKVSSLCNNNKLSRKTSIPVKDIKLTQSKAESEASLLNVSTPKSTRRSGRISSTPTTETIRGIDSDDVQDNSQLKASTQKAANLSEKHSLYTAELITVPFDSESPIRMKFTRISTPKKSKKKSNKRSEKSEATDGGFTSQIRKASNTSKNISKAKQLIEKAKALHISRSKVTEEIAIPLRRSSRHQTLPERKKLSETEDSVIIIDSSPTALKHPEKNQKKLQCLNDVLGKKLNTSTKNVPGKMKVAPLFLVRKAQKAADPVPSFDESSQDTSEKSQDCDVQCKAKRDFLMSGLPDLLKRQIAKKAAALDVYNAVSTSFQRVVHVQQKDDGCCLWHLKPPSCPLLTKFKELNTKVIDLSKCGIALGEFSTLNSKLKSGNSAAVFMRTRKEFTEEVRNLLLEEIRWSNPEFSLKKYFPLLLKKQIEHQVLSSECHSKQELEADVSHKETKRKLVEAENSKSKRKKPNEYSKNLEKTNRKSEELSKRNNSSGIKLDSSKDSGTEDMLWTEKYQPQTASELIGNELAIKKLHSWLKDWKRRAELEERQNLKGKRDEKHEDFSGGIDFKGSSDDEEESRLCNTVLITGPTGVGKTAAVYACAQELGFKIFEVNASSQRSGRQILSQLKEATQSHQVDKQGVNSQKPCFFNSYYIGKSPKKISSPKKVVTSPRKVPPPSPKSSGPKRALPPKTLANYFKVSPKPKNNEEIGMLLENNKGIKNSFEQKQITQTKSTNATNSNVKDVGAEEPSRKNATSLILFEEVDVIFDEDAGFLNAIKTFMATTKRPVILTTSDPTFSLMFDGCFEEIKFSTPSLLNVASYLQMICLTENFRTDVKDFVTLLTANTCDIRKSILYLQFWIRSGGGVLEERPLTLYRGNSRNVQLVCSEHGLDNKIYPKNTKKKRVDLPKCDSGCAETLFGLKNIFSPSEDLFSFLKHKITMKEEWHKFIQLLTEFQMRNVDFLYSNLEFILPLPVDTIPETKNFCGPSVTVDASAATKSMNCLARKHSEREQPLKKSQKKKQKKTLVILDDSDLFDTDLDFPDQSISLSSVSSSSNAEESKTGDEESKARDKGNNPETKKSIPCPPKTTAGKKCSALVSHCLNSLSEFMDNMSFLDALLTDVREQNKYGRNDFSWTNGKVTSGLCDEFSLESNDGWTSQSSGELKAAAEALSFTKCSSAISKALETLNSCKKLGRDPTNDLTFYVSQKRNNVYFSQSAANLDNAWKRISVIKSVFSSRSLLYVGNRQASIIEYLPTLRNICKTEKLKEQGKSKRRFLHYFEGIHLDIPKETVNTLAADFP
# Outline: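 Compounds reducing 5-fluorouridine-driven ELG1-luciferase signal in HEK293T cells were scored; exposure lasted 16 hr at 37 °C with luminescence detected via ONE-Glo.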
# [9] = Validation screen for small molecules that induce DNA re-replication in SW480 colon adenocarcinoma cells (AID 504364); further: potency means the concentration at half of the fitted maximal effect
# Outline: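 Hoechst-stained SW480 nuclei, imaged at 405 nm excitation after 48 hr compound exposure, were counted for elevated DNA content as the re-replication signal.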
# [10] = biological target: Estrogen receptor (Homo sapiens) (UniProt P03372); experiment: qHTS assay for small molecule agonists of estrogen receptor alpha signaling (AID 588514; calls by dose curve;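 further: 0% = vehicle only and 100% = reference agonist; nearly all actives have a fitted effect of over 70% in size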); settings: ER-alpha-UAS-bla HEK293, beta-lactamase ratio, 18 h, percent of full estradiol response, vehicle zero; at 76.8 µM (top of the series)
# Chain of UniProt P03372 (P03372 whole entry, looked up): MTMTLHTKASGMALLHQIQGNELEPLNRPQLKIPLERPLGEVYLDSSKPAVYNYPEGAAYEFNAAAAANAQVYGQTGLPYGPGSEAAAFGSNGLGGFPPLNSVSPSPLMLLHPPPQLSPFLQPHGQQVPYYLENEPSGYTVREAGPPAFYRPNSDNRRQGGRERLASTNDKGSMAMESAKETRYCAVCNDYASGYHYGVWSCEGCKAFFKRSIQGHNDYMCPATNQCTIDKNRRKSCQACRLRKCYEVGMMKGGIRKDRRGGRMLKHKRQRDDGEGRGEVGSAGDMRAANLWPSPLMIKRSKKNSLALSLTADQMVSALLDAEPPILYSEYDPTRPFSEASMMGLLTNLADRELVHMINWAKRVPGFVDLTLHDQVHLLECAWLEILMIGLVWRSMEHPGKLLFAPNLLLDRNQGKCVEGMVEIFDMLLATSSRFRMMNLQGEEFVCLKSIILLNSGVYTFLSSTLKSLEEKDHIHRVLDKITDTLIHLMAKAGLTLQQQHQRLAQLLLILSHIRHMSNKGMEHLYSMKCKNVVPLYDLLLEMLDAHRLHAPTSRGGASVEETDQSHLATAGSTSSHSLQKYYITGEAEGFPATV
# Outline: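 Fluorescence from CCF4 cleavage reports ER-alpha-driven beta-lactamase expression in HEK 293 cells treated 18 hrs at 37 C. Data normalized to 17-beta-estradiol (20 nM) and DMSO, fitted to Hill equation.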
# [11] = biological target: Galactokinase (Homo sapiens) (UniProt P51570); experiment: qHTS Validation Assay for Inhibitors of Human Galactokinase (GALK) (AID 493189); settings: purified human GALK enzyme activity, qHTS 7-point titration; further: potency means the concentration at half of the fitted maximal effect
# Chain of UniProt P51570 (P51570 whole entry, looked up): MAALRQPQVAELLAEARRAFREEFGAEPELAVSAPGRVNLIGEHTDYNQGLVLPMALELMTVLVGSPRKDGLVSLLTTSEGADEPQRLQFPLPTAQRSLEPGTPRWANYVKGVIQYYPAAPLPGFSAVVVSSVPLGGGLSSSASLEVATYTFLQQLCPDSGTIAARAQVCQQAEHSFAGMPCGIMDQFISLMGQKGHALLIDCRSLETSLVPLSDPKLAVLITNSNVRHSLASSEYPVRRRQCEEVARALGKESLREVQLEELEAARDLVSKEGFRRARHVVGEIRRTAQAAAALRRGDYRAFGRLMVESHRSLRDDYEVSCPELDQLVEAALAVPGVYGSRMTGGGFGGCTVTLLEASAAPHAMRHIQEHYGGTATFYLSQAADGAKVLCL
# Outline: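 Inhibition was measured as remaining ATP, detected by luciferase luminescence after a 1 h room-temperature reaction. Final conditions: 5 nM GALK, 100 uM galactose, 35 uM ATP, pH 8.0 HEPES buffer.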
# Tags describe the fitted curve by direction and shape or compound fluorescence and quenching.
structure (smiles),measurement,setting,value
O=C1c2ccccc2-c2n[nH]c3cccc1c23,Potency,[1],"inconclusive: 16.4 µM [inhibitor, single point]"
same,Potency,[2],"inconclusive: 32.9 µM [activator, partial curve, poor fit]"
same,Potency,[3],"inconclusive: 26.9 µM [fluorescent, side channel, partial curve]"
same,Potency,[4],active: 21.3 µM
same,Potency,[5],"inconclusive: 15.8 µM [rising, partial curve]"
Clc1ccccc1C(c1ccccc1)(c1ccccc1)n1ccnc1,Potency,[1],"inconclusive: 16.4 µM [inhibitor, single point]"
same,Potency,[6],"inconclusive: 6.31 µM [inhibitor, full curve, poor fit] and inconclusive: 39.8 µM [inhibitor, partial curve]"
same,Potency,[5],"inconclusive: 39.8 µM [cytotoxic, single point]"
same,Potency,[7],active: 25.1 µM
NCCc1cnc[nH]1,Potency,[8],inactive
same,Potency,[6],active: 44.7 µM
same,Potency,[5],inactive
CN1CCC(=C2c3ccccc3C=Cc3ccccc32)CC1,Potency,[8],inactive
same,Potency,[7],"inconclusive: 20 µM [inhibitor, partial curve]"
Cc1cn([C@H]2C=C[C@@H](CO)O2)c(=O)[nH]c1=O,Potency,[8],inactive
same,Potency,[9],inactive
same,Potency,[6],inactive
O=C1Nc2ccc(Cl)cc2C(C#CC2CC2)(C(F)(F)F)O1 (centres undefined),Potency,[6],"inconclusive: 56.2 µM [inhibitor, partial curve, poor fit]"
O=C(C1CCCCC1)N1CC(=O)N2CCc3ccccc3C2C1 (centres undefined),Potency,[1],"inconclusive: 29.1 µM [inhibitor, single point]"
same,Potency,[3],inactive
CCOC(=O)C(C)(C)Oc1ccc(Cl)cc1,Potency,[8],inactive
same,activation,[10],inconclusive: 45.1%
COc1ccccc1OCCNCC(O)COc1cccc2[nH]c3ccccc3c12 (centres undefined),Potency,[8],"inconclusive: 29.1 µM [inhibitor, single point]"
same,Potency,[1],inactive
same,Potency,[7],"inconclusive: 20 µM [inhibitor, partial curve]"
CN(C)CCOC(c1ccccc1)c1ccccc1,Potency,[8],inactive
same,Potency,[7],"inconclusive: 39.8 µM [inhibitor, partial curve, poor fit]"
same,activation,[10],inactive: -1.01%
NCCCCCC(=O)O,Potency,[8],"inconclusive: 2.59 µM [activator, full curve, poor fit]"
same,Potency,[3],"inconclusive: 19 µM [falling, partial curve, poor fit]"
Cc1coc2c1C(=O)C(=O)c1c-2ccc2c1CCCC2(C)C,Potency,[6],"inconclusive: 56.2 µM [inhibitor, partial curve, poor fit]"
Cc1nc(Nc2ncc(C(=O)Nc3c(C)cccc3Cl)s2)cc(N2CCN(CCO)CC2)n1,Potency,[6],inactive
Nc1ccn([C@@H]2O[C@H](CO)[C@@H](O)[C@H]2O)c(=O)n1,Potency,[6],inactive
CNCCCC12CCC(c3ccccc31)c1ccccc12,Potency,[8],"inconclusive: 18.3 µM [inhibitor, single point]"
same,Potency,[5],"inconclusive: 25.1 µM [cytotoxic, partial curve]"
same,Potency,[7],active: 15.8 µM
Nc1ncnc2nc(-c3ccc(N4CCOCC4)nc3)cc(-c3cccc(Br)c3)c12,Potency,[8],active: 4.11 µM
same,Potency,[6],"inconclusive: 56.2 µM [inhibitor, partial curve]"
OCCN1CCN(CCCN2c3ccccc3Sc3ccc(C(F)(F)F)cc32)CC1,Potency,[1],inactive
COc1ccccc1N1CCN(CCN(C(=O)C2CCCCC2)c2ccccn2)CC1,Potency,[1],"inconclusive: 9.2 µM [falling, partial curve]"
same,Potency,[5],inactive
CN1CCN(CCCN2c3ccccc3Sc3ccc(Cl)cc32)CC1,Potency,[9],"inconclusive: 9.2 µM [activator, partial curve]"
same,Potency,[6],"inconclusive: 39.8 µM [inhibitor, single point] and inconclusive: 44.7 µM [inhibitor, partial curve] and inconclusive: 56.2 µM [inhibitor, partial curve, poor fit]"
same,Potency,[5],"inconclusive: 20 µM [cytotoxic, partial curve, poor fit]"
same,Potency,[7],"inconclusive: 15.8 µM [inhibitor, partial curve, poor fit]"
CCOC(=O)Nc1ccc(NCc2ccc(F)cc2)nc1N,Potency,[11],"inconclusive: 31.6 µM [inhibitor, single point]"
CN1C(C(=O)Nc2ccccn2)=C(O)c2ccccc2S1(=O)=O,Potency,[1],"inconclusive: 16.4 µM [inhibitor, partial curve, poor fit]"
O=c1oc2c(O)c(O)cc3c(=O)oc4c(O)c(O)cc1c4c23,Potency,[6],"inconclusive: 56.2 µM [inhibitor, partial curve, poor fit]"
O=C(NC(Cc1cc(=O)[nH]c2ccccc12)C(=O)O)c1ccc(Cl)cc1 (centres undefined),Potency,[6],inactive
